Laboratory results taken from a compilation of properties of binary mixtures (doi:10.1021/acs.jpcb.7b01654).
The densities may have been worked out from excess volumes.

Assay: xn = mol fraction of the nth substance listed
Details: 293.15 K, 100 kPa

SMILES | mass density (x2 = 0) [kg/m3] | mass density (x1 = 0.04) [kg/m3] | mass density (x1 = 0.08) [kg/m3] | mass density (x1 = 0.24) [kg/m3] | mass density (x1 = 0.32) [kg/m3] | mass density (x1 = 0.43) [kg/m3] | mass density (x1 = 0.52) [kg/m3] | mass density (x1 = 0.63) [kg/m3] | mass density (x1 = 0.74) [kg/m3] | mass density (x1 = 0.87) [kg/m3] | mass density (x1 = 0.92) [kg/m3] | mass density (x1 = 0.96) [kg/m3] | mass density (x2 = 0.01) [kg/m3]
CC[n+]1ccn(C)c1.O=S(=O)([N-]S(=O)(=O)C(F)(F)F)C(F)(F)F + CCCCCCCCCCCC[n+]1ccn(C)c1.O=S(=O)([N-]S(=O)(=O)C(F)(F)F)C(F)(F)F | 1524 | – | – | – | – | – | – | – | – | – | – | – | –
CCCCCCCCCCCC[n+]1ccn(C)c1.O=S(=O)([N-]S(=O)(=O)C(F)(F)F)C(F)(F)F + CC[n+]1ccn(C)c1.O=S(=O)([N-]S(=O)(=O)C(F)(F)F)C(F)(F)F | – | 1506.7 | 1490.4 | 1426.8 | 1396.6 | 1371 | 1344.3 | 1311.4 | 1294.5 | 1270.9 | 1261.7 | 1255.1 | 1250.1
